Measurements from publication PMC4336329 (PLoS ONE, 2015).
The campaign covered roughly 310,000 compounds. About 14,000 (4.5%) showed an effect of 50% or more. Effects have a minus sign here. Some of the results follow.

Each compound was assayed against human ether-à-go-go-related gene (hERG) potassium channel (human, UniProt Q12809) (assay: primary screen, population patch clamp on CHO cells stably expressing hERG).
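Further: peak tail current of the secondary pulse compared with the same well before compound.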

Sequence of human ether-à-go-go-related gene (hERG) potassium channel (Q12809 whole entry, looked up): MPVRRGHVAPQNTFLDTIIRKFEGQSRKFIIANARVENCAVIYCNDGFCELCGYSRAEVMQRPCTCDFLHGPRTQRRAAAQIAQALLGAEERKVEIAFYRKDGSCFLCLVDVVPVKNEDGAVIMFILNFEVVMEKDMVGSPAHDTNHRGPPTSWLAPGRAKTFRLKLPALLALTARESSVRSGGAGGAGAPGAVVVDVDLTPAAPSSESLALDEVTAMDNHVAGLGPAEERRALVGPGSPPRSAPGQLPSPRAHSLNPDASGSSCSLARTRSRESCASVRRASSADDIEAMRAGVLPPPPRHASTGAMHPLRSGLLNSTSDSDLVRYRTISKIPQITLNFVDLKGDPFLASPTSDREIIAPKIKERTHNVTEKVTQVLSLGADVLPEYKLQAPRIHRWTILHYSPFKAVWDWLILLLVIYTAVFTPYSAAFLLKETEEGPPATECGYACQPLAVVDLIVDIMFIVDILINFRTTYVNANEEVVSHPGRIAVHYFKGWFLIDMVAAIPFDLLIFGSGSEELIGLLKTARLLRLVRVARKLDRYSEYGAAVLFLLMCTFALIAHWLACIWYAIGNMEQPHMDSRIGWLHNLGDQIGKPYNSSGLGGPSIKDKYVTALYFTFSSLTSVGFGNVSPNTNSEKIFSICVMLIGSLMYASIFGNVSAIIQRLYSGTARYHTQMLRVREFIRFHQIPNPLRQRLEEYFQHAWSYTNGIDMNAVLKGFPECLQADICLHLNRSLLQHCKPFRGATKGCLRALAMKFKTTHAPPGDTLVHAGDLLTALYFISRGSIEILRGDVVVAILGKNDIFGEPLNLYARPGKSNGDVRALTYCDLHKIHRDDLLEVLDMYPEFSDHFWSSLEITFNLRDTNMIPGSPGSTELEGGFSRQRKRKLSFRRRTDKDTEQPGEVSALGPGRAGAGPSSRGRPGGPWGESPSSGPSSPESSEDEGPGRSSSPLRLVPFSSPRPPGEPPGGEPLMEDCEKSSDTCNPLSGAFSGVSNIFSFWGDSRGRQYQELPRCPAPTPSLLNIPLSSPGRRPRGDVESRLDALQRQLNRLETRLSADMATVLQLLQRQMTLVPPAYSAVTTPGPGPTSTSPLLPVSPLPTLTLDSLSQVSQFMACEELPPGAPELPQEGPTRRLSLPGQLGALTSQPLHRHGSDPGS

| Structure (SMILES) | hERG current change (%, negative = inhibition) at 10uM [%] |
| --- | --- |
| Cc1ccccc1NC(=O)CCc1nnc2ccc(N3CCC4(CC3)OCCO4)nn12 | 8.74 |
| CC(c1nnc(SCC(=O)N(C)C2CCS(=O)(=O)C2)n1-c1ccccc1)N(C)C (stereo not drawn) | 4.64 |
| Cc1ccc(NC(=O)c2ccc(Cl)c(N3C(=O)CCC3=O)c2)cc1 | 10.1 |
| CCOC(=O)COc1cc2oc(=O)cc(C)c2cc1[N+](=O)[O-] | -13.5 |
| Cc1ccc(Cl)cc1NC(=O)COC(=O)c1ccccc1O | 1.9 |
| CC(=O)N(C)c1ccc(OCC(O)Cn2c3ccc(Cl)cc3c3cc(Cl)ccc32)cc1 (stereo not drawn) | 8.65 |
| COc1ccc(C(=O)Nc2cccnc2Sc2ccc(Cl)cc2)cc1 | 5.39 |
| COc1cccc(CNS(=O)(=O)c2c(C)nc3scc(C)n3c2=O)c1 | 3.98 |
| CCOC(=O)c1ccc(CS(=O)c2ccc(Cl)cc2)o1 (stereo not drawn) | -3.47 |
| Fc1ccccc1C1c2[nH]c3ccccc3c2CCN1Cc1ccoc1 (stereo not drawn) | -51.7 |
| O=C(Cc1csc(-c2ccccc2)n1)NCc1ccccc1F | -9.43 |
| O=C(/C=C/c1ccc[nH]1)c1ccc(F)cc1 | 23 |
| CN(C)S(=O)(=O)c1ccc(NC(=O)c2cccnc2)cc1 | 6.81 |
| CC(C1CC1)N(Cc1ccccc1)C(=O)NC(=O)c1ccc(F)cc1 (stereo not drawn) | -3.39 |
| COC(=O)c1ccc(=O)c2nc3/c(=C/O)c(O)cc(=O)c3[nH]c12 | -0.982 |
| CCc1nn(CC(=O)N2CCCCCC2)c(=O)c2cc3ccccc3n12 | -18.6 |
| O=C(Nc1ccc(O)c(C(=O)O)c1)c1cccc(NC(=O)c2ccco2)c1 | 3.91 |
| CSc1nc(C)c(Cc2c(F)cccc2Cl)c(=O)[nH]1 | 8.83 |
| O=C(CSc1nnc(COc2ccccc2Cl)o1)Nc1ccccc1 | 5.87 |
| CCCCc1ccc(NS(=O)(=O)c2cccs2)cc1 | -6.13 |
| CC1CCCCN1Cc1c(O)ccc2c(=O)c(-c3ccccc3)coc12 (stereo not drawn) | -38.2 |
| Cc1nonc1OCCNc1ccc([N+](=O)[O-])cc1[N+](=O)[O-] | -54.7 |

| Structure (SMILES) | hERG current change (%, negative = inhibition) at 10uM [%] |
| --- | --- |
| Cc1nn(CCC(=O)NNC(=S)Nc2ccc(F)cc2)c(C)c1Br | 10.6 |
| CS(=O)(=O)c1nc(-c2cccs2)cc(C(F)(F)F)n1 | -8.38 |
| COc1ccccc1N(CC(=O)NC1CCCC1)S(=O)(=O)c1ccc(C)cc1 | -5.82 |
| CCOC(=O)c1sc(NC(=O)c2cccc(S(=O)(=O)N(CC)CC)c2)cc1C | 0.563 |
| COc1ccc(C2(C)NC(=O)N(CC(=O)Nc3cccnc3Cl)C2=O)cc1 (stereo not drawn) | 2.37 |
| COc1ccc(-c2nnc(SCC(=O)c3cccs3)o2)cc1 | -8.4 |
| CC1(c2nnc(-c3ccccc3)o2)CC(c2c(Cl)cccc2Cl)=NO1 (stereo not drawn) | 23.4 |
| O=C(OCC(=O)c1c[nH]c2ccccc12)c1ccco1 | 8.95 |
| CC1CCN(C(=O)CCc2nnc3ccc(N4CCC5(CC4)OCCO5)nn23)CC1 | 18.6 |
| NC(=O)C1CCN(C(=O)c2ccc(OCC(=O)Nc3cccc(C(F)(F)F)c3)cc2)CC1 | 1.96 |
| C=C(C)COc1ccc(-c2n[nH]c(C)c2-c2ccc(OC)c(OC)c2)c(O)c1 | 21.6 |
| Cc1ccc(S(=O)CCNC(=O)Cc2ccccc2)cc1 (stereo not drawn) | 10.1 |
| COc1ccc(-n2nc(C(=O)NCC(=O)NCC3COc4ccccc4O3)c3ccccc3c2=O)cc1 (stereo not drawn) | -15.5 |
| Cc1cccc(NC(=O)CCC(=O)N/N=C/c2cc([N+](=O)[O-])ccc2O)c1 | 3.6 |
| Cc1ccc(C(=O)N/C(=C\c2ccc(-c3cccc([N+](=O)[O-])c3)o2)C(=O)NCCCN2CCOCC2)cc1 | -74.9 |
| Cc1ccc(OCC(=O)NCCNC(=O)c2ccncc2)cc1C | 15.9 |
| CCCc1cc(=O)oc2cc(C)cc(OCC(=O)N3CCC(C(N)=O)CC3)c12 | -5.95 |
| COc1ccc(N(C2CSC2)S(=O)(=O)c2ccccc2)cc1 | 8.52 |
| Cn1c(SCc2ccc(Br)cc2)nnc1-c1ccncc1 | -28.8 |
| COCCN(CCOC)c1cc(C)c(C#N)c2nc3ccccc3n12 | -15.4 |
| CC(C)CCN1C(=O)c2ccc(C(=O)Nc3c[nH]c(=O)[nH]c3=O)cc2C1=O | 12.4 |
| Clc1ccc(C(c2ccccc2Cl)C(Cl)Cl)cc1 (stereo not drawn) | -1.99 |

| Structure (SMILES) | hERG current change (%, negative = inhibition) at 10uM [%] |
| --- | --- |
| Clc1ccc(-n2cc(COCc3ccccc3)nn2)cc1 | -14.4 |
| Cc1ccc2c(c1)cc(C(=O)N[C@@H](Cc1ccccc1)C(=O)O)n2C | 2.03 |
| C/C(=N\Nc1ccc(C(=O)O)cc1)c1ccc(S(=O)(=O)NCc2ccco2)cc1 | 10.7 |
| CN(C)CCOC(=O)C12CC3(C)CC(C)(CC(C)(C3)C1)C2.Cl | -7.13 |
| Cc1ccc(C)c(-c2ccc(=O)n(Cc3c(F)cccc3Cl)n2)c1 | 3.88 |
| Cc1ccc(C(=O)NCc2cccnc2)cc1S(=O)(=O)Nc1ccccc1 | 3.42 |
| CC(C)OC(=O)/C(=C\c1cccnc1)NC(=O)c1ccccc1 | 4.13 |
| Cn1c(=O)c(Cc2ccccc2)c(O)c2ccccc21 | 5.45 |
| O=C1C2C(c3ccccc3)CC=CC2[C@H](c2ccc3ccccc3c2)N1Cc1ccccc1 (stereo partly drawn) | 19.3 |
| COC(=O)C(NC(=O)CCC(=O)NC(C(=O)OC)c1ccccc1)c1ccccc1 (stereo not drawn) | 10.3 |
| COc1ccc(CCN2C(=O)CC(N3CCC(C(N)=O)CC3)C2=O)cc1OC (stereo not drawn) | 11.4 |
| Cc1cccc(N(C(=O)c2csnn2)C(C(=O)NCc2ccccc2)c2ccncc2)c1 (stereo not drawn) | -18.7 |
| CC(=O)Nc1cc(C(=O)NCCN2CCN(Cc3ccccc3)CC2)ccc1Sc1ccc(C)cc1 | -63.6 |
| O=C(N/N=C/c1cc(Br)cc(Br)c1O)c1ccncc1 | 15.6 |
| Cc1cc(=O)oc(C)c1C(=O)NCc1c(F)cc(F)cc1F | -9.84 |
| CCOC(=O)N1CCN(Cc2ccc(O)c3ncccc23)CC1 | -8.14 |
| O=C(NCCCC(=O)N1CCOCC1)c1cccnc1 | 1.22 |
| NS(=O)(=O)c1ccc(CCNC(=O)c2ccc([N+](=O)[O-])s2)cc1 | -3.62 |
| O=C(NNC(=S)Nc1ccc(F)cc1)C1[C@H]2CCCC[C@@H]12 (stereo partly drawn) | 16.2 |
| COCCNc1c(-c2ccc(OC)cc2)nc2ccc(Cl)cn12 | -39.5 |
| CCOC(=O)c1cc(NC(=O)CNCC(c2ccccc2)N(C)C)cc(C(=O)OCC)c1.O=C(O)C(=O)O (stereo not drawn) | -57.7 |
| Cc1ccc(N=Nc2c(N)[nH]n3c(=O)cc(-c4ccccc4)nc23)cc1 | 7.52 |

| Structure (SMILES) | hERG current change (%, negative = inhibition) at 10uM [%] |
| --- | --- |
| CC(C)N(C(=O)CN1C(=O)NC2(CCCCCC2)C1=O)C(C)C | 1.17 |
| O=C(O)Cc1ccc(NC(=O)c2ccc3c(c2)C(=O)N(Cc2ccco2)C3=O)cc1 | 3.41 |
| CS(=O)(=O)N(CC(=O)Nc1cccc(F)c1)Cc1ccccc1 | 15.8 |
| ClCc1nc2ccccc2c2ccccc12 | 11 |
| CC1CCCN(c2nc3nonc3nc2N2CCCC(C)C2)C1 (stereo not drawn) | 1.25 |
| Cc1onc(-c2ccccc2)c1C(=O)OCCOc1cccc(Cl)c1 | 1.19 |
| Nc1ccc2c(c1)N1CCN=C1S2 | 14.5 |
| Cc1ccccc1NC(=O)Cc1nc(COC(=O)c2ccc(Cl)nc2)cs1 | 2.75 |
| Clc1ccc2nc(-c3ccccn3)c(Nc3ccc4c(c3)OCO4)n2c1 | -38.2 |
| COc1ccc(NC(=O)c2sc3ncnc(N4CCN(c5ccccn5)CC4)c3c2C)cc1Cl | -23 |
| Cc1nc(C)c(-c2nnc(-c3cccc(S(=O)(=O)N(C)C)c3)o2)cc1C(=O)NN | 14.1 |
| Cc1nc2nc(C)c(CCC(=O)NCc3ccc4c(c3)OCO4)c(C)n2n1 | -9.72 |
| COc1ccc(OCC(=O)Nc2cccc(C(=O)Nc3ccccc3C(=O)O)c2)cc1 | 3.09 |
| COc1ccc(N(Cc2ccccc2)C(=O)c2ccccc2[N+](=O)[O-])cc1 | -17.8 |
| CN1CCN(C(=O)C2=C[C@H](c3coc4ccccc4c3=O)C[C@H](OCCCCO)O2)CC1 | -20.3 |
| Cc1ccc2cc(C)c(SCC(=O)NCc3ccco3)nc2c1 | 5.57 |
| CCOC(=O)c1sc(NC(=O)OC)c(C(=O)OC)c1C | 17.3 |
| COc1ccc(Cl)cc1NC(=O)C(C)Sc1nnc(C2CC2)n1C1CC1 (stereo not drawn) | -69.5 |
| Cc1nn(CC(=O)c2cccc(Cl)c2)c(C)c1[N+](=O)[O-] | -7.43 |
| CC1Oc2ccccc2OC1C(=O)Nc1nccs1 (stereo not drawn) | 13 |
| CC(C)n1c(=O)c(C=Nc2ccc(F)cc2)c(O)n(Cc2ccco2)c1=O | -19.7 |
